The values below come from PubChem BioAssay AID1745853 (National Center for Advancing Translational Sciences (NCATS), 2022).

Holding throughout (test): Primary Screen for Target Class Profiling of Small Molecule Inhibitors of Methyltransferases
The target in experiment [1] is Glycine N-methyltransferase (Homo sapiens) (UniProt Q14749). The following applies: purified enzyme, MTase-Glo SAH luminescence; measured here: GNMT inhibition; at 40 µM; stronger effect = lower value. Summed up: (§1)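 Each enzyme was assayed with SAM and its substrate. SAH formation detected by MTase-Glo luminescence; single-point 40 uM screen[…].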
Experiment [2] has as its target Guanidinoacetate N-methyltransferase (Homo sapiens) (UniProt Q14353). The note with it: purified enzyme, MTase-Glo SAH luminescence; measured here: GAMT inhibition; at 40 µM; stronger effect = lower value. In short, it runs like this: as §1
The target in experiment [3] is Histamine N-methyltransferase (Homo sapiens) (UniProt P50135). The note with it: purified enzyme, MTase-Glo SAH luminescence; measured here: HNMT inhibition; at 40 µM; stronger effect = lower value. In short, it runs like this:
as §1

Experiment [4] deals with Nicotinamide N-methyltransferase (Homo sapiens) (UniProt P40261). The following applies: purified enzyme, MTase-Glo SAH luminescence; measured here: NNMT inhibition; at 40 µM; stronger effect = lower value. Summed up: as §1
For experiment [5], the target named is Phenylethanolamine N-methyltransferase (Homo sapiens) (UniProt P11086). The following applies: purified enzyme, MTase-Glo SAH luminescence; measured here: PNMT inhibition; at 40 µM; stronger effect = lower value. In short, it runs like this: as §1

The other results are listed elsewhere or left out. Shown are side measurements of this screen, not its main read-out; they come without a call.
% is scaled to controls: 0 for no effect and ±100 for the full control effect.

For the molecule `CCCN1C(=O)c2c(C(=O)NCCC3=CCCCC3)ncn2CC1(C)C(=O)NCCC(C)C` (stereo not drawn), the activity change, negative = inhibition in experiment [1] was -1.24%; in experiment [2] it was 0.907%; in experiment [3] it was 4.78%; in experiment [4], -7.68%; in experiment [5], 6.25%.
Turning to `CO[C@H]1C[C@@H]2CC[C@@H](C)[C@@](O)(O2)C(=O)C(=O)N2CCCC[C@H]2C(=O)O[C@H]([C@H](C)C[C@@H]2CC[C@H](n3cnnn3)[C@H](OC)C2)CC(=O)[C@H](C)/C=C(\C)[C@@H](O)[C@@H](OC)C(=O)[C@H](C)C[C@H](C)/C=C/C=C/C=C/1C`, the activity change, negative = inhibition in experiment [1] was 2.87%; in experiment [2] it was 7.17%; in experiment [3], 8.69%; in experiment [4], -7.78%; in experiment [5], 6.39%.
As for `Cc1ccc(Cn2c(=O)c3ccc(C(=O)NCC(C)C)cc3n3c(=O)n(Cc4cccc(F)c4)nc23)cc1`, the activity change, negative = inhibition in experiment [1] was determined as 6.1%; in experiment [2], 2.2%; in experiment [3] it was 6%; in experiment [4], 4.58%; in experiment [5], 6.61%.
In the case of `CC1CC(=O)C2=C(CCC3(O)C(O)c4c(O)cccc4C(=O)C23O)C1` (stereo not drawn), the activity change, negative = inhibition is -4.9% in experiment [1]; -0.29% in experiment [2]; 4.2% in experiment [3]; -12.2% in experiment [4]; -10.8% in experiment [5].
For `COC(=O)c1ncn2c1C(=O)N(CCc1cccs1)C(C)(C(=O)NC1CCCC1)C2` (stereo not drawn), the activity change, negative = inhibition in experiment [1] was determined as 0.593%; in experiment [2], 4.23%; in experiment [3] it was 1.03%; in experiment [4] it was 0.666%; in experiment [5] it was 2.22%.
On to `Cn1c(=O)oc2cc(S(=O)(=O)NCCc3nc(-c4ccc(F)cc4)n[nH]3)ccc21`, for which the activity change, negative = inhibition in experiment [1] is 1.52%; in experiment [2], 4.6%; in experiment [3], -2.04%; in experiment [4], -2.97%; in experiment [5] it was -3.48%.
For the molecule `CCOc1ccc(N2C(=O)c3cc4occc4n3CC2(C)C(=O)NC2CCCCCC2)cc1` (stereo not drawn), the activity change, negative = inhibition in experiment [1] came to 1.15%; in experiment [2], 0%; in experiment [3], 2.96%; in experiment [4], 5.43%; in experiment [5], 0.605%.
Turning to `Cc1ccc(CNC(=O)c2cc3n(n2)CC(C)(C(=O)NCc2ccccc2)N(C)C3=O)o1` (stereo not drawn), the activity change, negative = inhibition in experiment [1] worked out at 3.06%; in experiment [2], 0.327%; in experiment [3], 5.3%; in experiment [4] it was 1.99%; in experiment [5], 2.63%.
Regarding `CCO[C@H]1CN(C(=O)C(C)(C)Oc2ccc3c(c2)CCC3)C[C@@H]1O`, the activity change, negative = inhibition in experiment [1] is -7.9%; in experiment [2], -8.17%; in experiment [3], -3.35%; in experiment [4] it was -8.2%; in experiment [5], 0.664%.
For `CCCc1cc(CN(C)C(=O)c2ccc3c(c2)[nH]c(=O)n3C2CCC(O)CC2)[nH]n1` (stereo not drawn), the activity change, negative = inhibition was -1.14% in experiment [1]; 0.673% in experiment [2]; 2.24% in experiment [3]; -2.22% in experiment [4]; -3.97% in experiment [5].
The corresponding values for `CC1(C)Cc2nc(C(C)(C)C)ncc2C(NC(=O)CCCN2CCCC2=O)C1` (stereo not drawn) are -0.137%, -0.576%, 3.54%, -0.271% and -0.067%.
For `Cc1cc(C)cc(NC(=O)Cn2nc3n(CCC(C)C)c(=O)c4ccc(C(=O)NC(C)C)cc4n3c2=O)c1`, the activity change, negative = inhibition in experiment [1] was 4.96%; in experiment [2] it was 4.27%; in experiment [3], -0.742%; in experiment [4] it was 2.06%; in experiment [5] it was 3.42%.
For `Cc1noc2c(Nc3ccc(C(N)=O)cc3)cc(-c3ccsc3)nc12`, the activity change, negative = inhibition was -4.05% in experiment [1]; -3.69% in experiment [2]; -1.51% in experiment [3]; -11.2% in experiment [4]; -5.04% in experiment [5].
Turning to `OC1COC(OCC2OC(OCCc3ccccc3)C(O)C(O)C2O)C(O)C1O` (stereo not drawn), the activity change, negative = inhibition in experiment [1] was 0%; in experiment [2], 6.19%; in experiment [3], 8.53%; in experiment [4] it was -5.42%; in experiment [5] it was 2.92%.
With `CC1(C(=O)NC2CCCCCCC2)Cn2c(cc3sccc32)C(=O)N1C1CCCC1` (stereo not drawn), the activity change, negative = inhibition in experiment [1] was 1.99%; in experiment [2], 1.07%; in experiment [3], 3.86%; in experiment [4] it was 2.64%; in experiment [5] it was -0.004%.
For `COc1ccccc1CNC(=O)c1ccc2c(=O)nc3c(-c4ccccc4)n[nH]n3c2c1`, the activity change, negative = inhibition in experiment [1] was -5.06%; in experiment [2], 2.74%; in experiment [3], 4.14%; in experiment [4] it was 3.42%; in experiment [5] it was -1.81%.
For the molecule `CCCCCNc1nc2c(-c3ccc(C)cc3)nnn2c2ccccc12`, the activity change, negative = inhibition in experiment [1] is -1.59%; in experiment [2] it was 0.163%; in experiment [3], 6.46%; in experiment [4], -0.502%; in experiment [5], 0.428%.
Regarding `CSc1ccc(CNC(=O)Cn2ccc3cc(S(=O)(=O)N4CCC(C)CC4)ccc32)cc1`, the activity change, negative = inhibition was 7.96% in experiment [1]; 0.149% in experiment [2]; 5.56% in experiment [3]; 1.65% in experiment [4]; 0.676% in experiment [5].
The corresponding values for `CC(=O)OC1C=C(C(=O)O)C2(CO)CCC(C)C(C)(CCc3ccoc3)C2C1` (stereo not drawn) are 0.305%, 7.12%, 9.15%, -9.68% and 6.02%.
For `CCOc1ccccc1NC(=O)N1CCn2cccc2C1C` (stereo not drawn) the same measures were -15.9%, -0.204%, -15.6%, -23.8% and -14.9%.
For `CN1C(=O)c2cc(C(=O)NC3CCCc4ccccc43)nn2CC1(C)C(=O)NC1CCCCCC1` (stereo not drawn), the activity change, negative = inhibition in experiment [1] was 5.45%; in experiment [2], 0%; in experiment [3], 5.64%; in experiment [4], -1.55%; in experiment [5], 3.56%.
On to `Cc1ccc(CNC(=O)N2CCn3c(C)ccc3C2C(C)C)cc1` (stereo not drawn), for which the activity change, negative = inhibition in experiment [1] is 5.51%; in experiment [2], 0%; in experiment [3], -2.93%; in experiment [4] it was -6.09%; in experiment [5], -3.33%.
In the case of `COCC[C@]1(O)CCN(C(=O)Nc2ccc(F)c(C(F)(F)F)c2)C[C@H]1C`, the activity change, negative = inhibition in experiment [1] was -0.796%; in experiment [2], -6.48%; in experiment [3], -2.34%; in experiment [4] it was -3.69%; in experiment [5] it was -3.87%.
For `C1CCC[C@H]2CCCN3CC[C@H](CCCCCC[C@@H]4CCCN5CC[C@H](CC1)O[C@H]45)O[C@H]23`, the activity change, negative = inhibition in experiment [2] was -4%; in experiment [4], -8.18%; in experiment [5] it was 3.74%.
As to `CC(C)=CCn1c(-c2cc(C)oc2C)cn2cc(C(=O)N(C)CC(C)C)nc2c1=O`, the activity change, negative = inhibition in experiment [1] was -12.2%; in experiment [2], -0.59%; in experiment [3] it was -3.91%; in experiment [4], -14%; in experiment [5], -4.8%.
For `CCc1cc2c(cc3n2CC(C(=O)NC2CCCCC2)(c2ccccc2)N(Cc2ccccc2)C3=O)s1` (stereo not drawn) the same measures were 1.41%, -1.38%, 5.33%, -4.73% and -3.82%.
Take `O=C(C[C@@H]1O[C@H](CNC(=O)Nc2ccccc2)[C@@H](O)[C@H]1O)NC1CC1`: the activity change, negative = inhibition in experiment [1] is -1.17%; in experiment [2], -1.2%; in experiment [3], 0.236%; in experiment [4], -5.29%; in experiment [5] it was -3.03%.
As to `COc1ccc(N(C)C(=O)c2c(C)oc3c2CN(Cc2ccc(F)cc2)CC3)cc1`, the activity change, negative = inhibition in experiment [1] was -2.72%; in experiment [2], -5.6%; in experiment [3], -0.998%; in experiment [4], 1.1%; in experiment [5], 0.48%.
Take `Cc1ccc(C(=O)Cn2nc3n(CCC(C)C)c(=O)c4ccc(C(=O)NC(C)C)cc4n3c2=O)cc1`: the activity change, negative = inhibition in experiment [1] turned out to be 7.3%; in experiment [2], 0%; in experiment [3], 3.62%; in experiment [4], 3.27%; in experiment [5], 3.93%.
